PubChem BioAssay AID889 (National Center for Advancing Translational Sciences (NCATS), 2007)
Hit rate of the full screen: of about 75,000 compounds, about 15 (0.02%) were called active. Inconclusive means that the source gave no clear call. Such entries were picked first, then a sample of the others. Calls follow the shape of the dose curve; as a rule, active = well fitted inhibition curve with a large enough effect in the main read-out, with a control signal flat (not every such curve was filed as active); inconclusive = small, poorly fitted or top-dose-only effect, or a change in a side signal; inactive = flat fitted curve, though single readings scatter. A potency beside an inconclusive call is a rough fit, not a confirmed value. A note “side channel” means that the fit belongs to a control or component signal, not to the main read-out.

target: Caspase-7 (Homo sapiens) (UniProt P55210); assay: qHTS Assay for Allosteric/Competitive Inhibitors of Caspase-7; conditions: recombinant caspase-7, Ac-DEVD-AFC fluorescence rate; activity change, negative = inhibition: at 57.5 µM (top of the series) unless noted; as to activity change, negative = inhibition: % of control where 0% means no effect
Potency is read from the fitted curve at half-maximal effect; tags tell the direction and shape of the fitted curve or compound fluorescence and quenching.

Sequence of UniProt P55210 (P55210 whole entry, looked up): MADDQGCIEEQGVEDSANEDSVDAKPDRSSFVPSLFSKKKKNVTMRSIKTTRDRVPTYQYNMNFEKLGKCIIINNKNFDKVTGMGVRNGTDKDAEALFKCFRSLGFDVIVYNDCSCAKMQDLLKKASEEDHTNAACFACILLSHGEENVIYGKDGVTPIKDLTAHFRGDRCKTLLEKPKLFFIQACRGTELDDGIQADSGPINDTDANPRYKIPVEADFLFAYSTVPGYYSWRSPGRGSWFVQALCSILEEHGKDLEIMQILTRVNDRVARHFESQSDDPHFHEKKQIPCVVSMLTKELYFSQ

Potency, inconclusive:
O=c1c2c3nc4ccccc4nc3n(/N=C/c3ccco3)c2ncn1CCC1=CCCCC1 25.1 µM [inhibitor, single point]
Cc1ccc(C)n1-c1cccc(N)c1 25.1 µM [fluorescent, partial curve]
Oc1ccc(Br)cc1/C=N/n1cnc2ccccc21 15.8 µM [inhibitor, partial curve]
CC(C)CCNC(=O)c1cnn2c(C(F)(F)F)cc(-c3ccco3)nc12 25.1 µM [fluorescent, partial curve]
COCCn1c(N)c(S(=O)(=O)c2cccs2)c2nc3ccccc3nc21 25.1 µM [fluorescent, partial curve]
COCCn1c(=O)c(-c2cccc(C#N)c2)nc2cnc(N(C)C)nc21 2.51 µM [fluorescent, full curve]
Oc1ccccc1/C=N/c1c(-c2ccco2)nc2ccccn12 12.6 µM [inhibitor, partial curve]
COc1cccc(Nc2ncc3nc(-c4cc(F)cc(F)c4)c(=O)n(C[C@H]4CCCO4)c3n2)c1 2.51 µM [fluorescent, side channel, partial curve]
COc1ccc(Oc2ncc3nc(-c4cccs4)c(=O)n(Cc4cccc(OC)c4)c3n2)cc1 12.6 µM [fluorescent, side channel, partial curve]
COc1cccc(-c2cc3nc(-c4ccccc4)cc(N4CCC5(CC4)OCCO5)n3n2)c1 20 µM [fluorescent, partial curve]
CCOCCCn1c(C)nc2c(c1=O)c1nc3ccccc3nc1n2CCC1=CCCCC1 15.8 µM [inhibitor, partial curve]
Cn1c(C(=O)NCC2CCCO2)cc2c(=O)n3ccccc3nc21 (configuration not stated) 5.01 µM [fluorescent, side channel, partial curve]
CSCSC1=C(C#N)C(c2ccccc2Cl)C(C(C)=O)=C(C)N1 (configuration not stated) 25.1 µM [fluorescent, partial curve]
COc1ccc(-n2c(=O)c(-c3cccs3)nc3cnc(OC)nc32)cc1 15.8 µM [fluorescent, partial curve]
CN1CCCc2cc3c(C(F)(F)F)cc(=O)oc3nc21 1.26 µM [fluorescent, side channel, full curve]
c1coc(-c2nc3nc4ccccc4nc3n2CC2CCCO2)c1 (configuration not stated) 25.1 µM [fluorescent, partial curve]
COC(=O)Cc1c(C)c2c(O)cc(C)cc2oc1=O 25.1 µM [inhibitor, partial curve]
CN1C=CC2=C(C#N)C(N)C(C#N)(C#N)C(c3ccccc3)C2C1 (configuration not stated) 15.8 µM [fluorescent, side channel, partial curve]
Cc1ccc(C2CC(=O)N3CN(c4ccc(Br)cc4)CSC3=C2C#N)o1 (configuration not stated) 25.1 µM [inhibitor, single point]
Cc1cc2c(cc1C)NC(c1c(C)n(C)n(-c3ccccc3)c1=O)C1=C(CC(C)(C)CC1=O)N2 (configuration not stated) 10 µM [fluorescent, side channel, partial curve]
COc1ccc(CN2CCN(c3cc(C)nc4c5c(C)cc(C)nc5nn34)CC2)cc1F 15.8 µM [inhibitor, partial curve]
Cc1ccc(-c2nc3cnccn3c2Nc2ccccc2)o1 25.1 µM [fluorescent, partial curve]
Cc1ccc(S(=O)(=O)N2CCCC2C(=O)NCCc2nc3ccccc3[nH]2)cc1 (configuration not stated) 15.8 µM [fluorescent, side channel, partial curve]
O=c1c(-c2ccccc2)nc2cnc(Oc3ccccc3)nc2n1Cc1cccs1 25.1 µM [inhibitor, single point]
C=CCn1c(N)c(C(=O)NCC2CCCO2)c2nc3ccccc3nc21 (configuration not stated) 5.01 µM [fluorescent, side channel, partial curve]
CCN(CC)c1ccc2c(C)c(CN3CCOCC3)c(=O)oc2c1 5.01 µM [fluorescent, side channel, partial curve]
Cc1ccc(S(=O)(=O)c2cc3c(=O)n4cc(C)ccc4nc3n(CC3CCCO3)c2=N)cc1 (configuration not stated) 15.8 µM [fluorescent, side channel, partial curve]
COCCOC(=O)C1=C(C)NC2=C(C(=O)CC(C)(C)C2)C1c1cc2c(cc1Br)OCO2 (configuration not stated) 31.6 µM [inhibitor, single point]

Potency, inactive:
C=CCn1c(NCc2ccccc2)nc2ccccc21
CCc1ccc2c(O)c3c(cc2c1C(=O)OC)C(=O)c1c(O)ccc(O)c1C3=O
Cc1cccc(CNc2ncnc3ccc(-c4cccnc4)cc23)c1
CC(O)(P(=O)(O)O)P(=O)(O)O
O=C(Nc1ccc(N2CCN(c3ccc(O)cc3)CC2)cc1)Oc1ccccc1
CC(=O)NCCNc1nc(-c2ccccc2Cl)nc2ccccc12
Cc1cnc(CNc2ncnc3ccc(-c4ccccc4Cl)cc23)cn1
COc1cccc(-n2nnc3c(=O)n(Cc4ccccc4F)cnc32)c1
CCN(CCNS(=O)(=O)c1ccc2c(c1)oc(=O)n2C)c1ccccc1
COc1ccc(Cl)cc1NC(=O)CN(c1ccccc1)S(=O)(=O)N(C)C
CCOC(=O)C(CC)Sc1nnc2n1C(C)(C)Cc1ccccc1-2 (configuration not stated)
O=C(N1CCOCC1)C1(c2ccccc2)CCCCC1

Activity change, negative = inhibition, inactive:
C#CCCCO/N=C1/C[C@@H](O)[C@@H](O)[C@@H]2[C@@H]3C(=O)N(C4CCCCC4)C(=O)[C@H]3CC[C@H]12 0.627% [at 11.5 µM]
C=C(C)CNCCN -1.24% [at 11.5 µM]
